The values that follow come from patent US11767359B2, “C3-binding agents and methods of use thereof” (NGM Biopharmaceuticals, Inc., priority 2018, dated 2023).

Data set [1] in a line: Viscosity at high formulation concentration (RheoSense). Format: physicochemical. The method, then:
The first buffer formulation was 10 mM sodium phosphate, 40 mM sodium chloride, 0.03% polysorbate 20, and 5% sucrose at pH 6.2. […] The second buffer formulation was 10 mM histidine HCl, 10% α,α trehalose dihydrate, and 0.01% polysorbate 20 at pH 5.5.

The nature of data set [2]: Pharmacokinetics after intravitreal injection in rabbits. Format: in vivo, New Zealand White rabbits. The note with it: rabbit. The protocol: Samples were taken at 1 and 8 hours and on days 2, 4, 8, 15 and 22 (4 eyes/time point).
Data set [3] concerns the target C3 (Homo sapiens, UniProt P01024). In words: Binding affinity by Biacore, human C3. The note with it: from Table 15. The protocol:
The binding affinities of exemplary anti-C3 antibodies to human C3 and cyno C3 were measured using a Biacore system (GE Healthcare LifeSciences). Briefly, anti-Fc antibody (Sigma-Aldrich) was immobilized on all four flow cells of a CM5 chip using amine coupling reagents (GE Healthcare LifeSciences). Antibodies were captured on flow cells 2, 3, and 4 using flow cell 1 as a reference. Concentrations ranging from 0.62-40 nM of human C3 or cyno C3 were injected at a flow rate of 50 μL/min at 37° C. Kinetic data were collected over time and fit using the simultaneous global fit equation to yield affinity constants (KD values) for each antibody.
More recently, a number of compstatin analogs and derivatives have been generated and studied. […] A Biacore system was used to assess the binding affinities of the different molecules to human C3. […] Evaluation of COMP or COMP-PEG binding to human C3 was carried out as follows. Human C3 was immobilized on flow cell 2 of a CM5 chip using amine-coupling reagents (GE Healthcare LifeSciences) and flow cell 1 (immobilized with a similar amount of human IgG) was used as a reference. […] Similar experiments were set up with COMP-PEG (concentration range of 25-400 nM) for evaluation at 37° C. COMP-PEG binding to human C3 was also evaluated at 25° C. with modifications. […]

The nature of data set [4]: Elevated pH stress test, deamidation at N55 of heavy chain CDR2. Format: physicochemical.
For data set [5], the system named is C3. In words: LPS-induced complement activation model in the eye. Format: in vivo, cynomolgus monkeys. The note with it: 5 mg/eye IVT on Day 1, LPS 30 ng/eye IVT on Day 3, samples Days 5, 8, 13, 18. The source says:
In normal cynomolgus monkeys, C3 activation is minimal and thus the inhibitory effects of an anti-C3 antibody on C3 activation cannot be reliably evaluated in this setting. It is known that LPS can activate the complement system and a pilot study confirmed that complement C3 was activated by intravitreal injection (IVT) of LPS.
Twelve normal female cynomolgus monkeys (ages ranging from 8 to 17 years old) were assigned to 2 groups with 6 animals per group. A baseline sampling of aqueous humor was conducted on Day −3. […] On Day 3, animals were injected intravitreously with LPS at 30 ng/eye at a volume of 50 μl/eye. On Days 5, 8, 13, and 18 aqueous humor samples were taken. C3a concentrations in the aqueous humor were determined using a Complement C3a Human ELISA Kit (Invitrogen) following the manufacturer's instructions.

Where [6] appears, read: 1.0 mg single intravitreal dose, vitreous humor.
Setting [7] is: 7.5 mg single intravitreal dose, vitreous humor.

Sequence of UniProt P01024 (P01024 23-1663): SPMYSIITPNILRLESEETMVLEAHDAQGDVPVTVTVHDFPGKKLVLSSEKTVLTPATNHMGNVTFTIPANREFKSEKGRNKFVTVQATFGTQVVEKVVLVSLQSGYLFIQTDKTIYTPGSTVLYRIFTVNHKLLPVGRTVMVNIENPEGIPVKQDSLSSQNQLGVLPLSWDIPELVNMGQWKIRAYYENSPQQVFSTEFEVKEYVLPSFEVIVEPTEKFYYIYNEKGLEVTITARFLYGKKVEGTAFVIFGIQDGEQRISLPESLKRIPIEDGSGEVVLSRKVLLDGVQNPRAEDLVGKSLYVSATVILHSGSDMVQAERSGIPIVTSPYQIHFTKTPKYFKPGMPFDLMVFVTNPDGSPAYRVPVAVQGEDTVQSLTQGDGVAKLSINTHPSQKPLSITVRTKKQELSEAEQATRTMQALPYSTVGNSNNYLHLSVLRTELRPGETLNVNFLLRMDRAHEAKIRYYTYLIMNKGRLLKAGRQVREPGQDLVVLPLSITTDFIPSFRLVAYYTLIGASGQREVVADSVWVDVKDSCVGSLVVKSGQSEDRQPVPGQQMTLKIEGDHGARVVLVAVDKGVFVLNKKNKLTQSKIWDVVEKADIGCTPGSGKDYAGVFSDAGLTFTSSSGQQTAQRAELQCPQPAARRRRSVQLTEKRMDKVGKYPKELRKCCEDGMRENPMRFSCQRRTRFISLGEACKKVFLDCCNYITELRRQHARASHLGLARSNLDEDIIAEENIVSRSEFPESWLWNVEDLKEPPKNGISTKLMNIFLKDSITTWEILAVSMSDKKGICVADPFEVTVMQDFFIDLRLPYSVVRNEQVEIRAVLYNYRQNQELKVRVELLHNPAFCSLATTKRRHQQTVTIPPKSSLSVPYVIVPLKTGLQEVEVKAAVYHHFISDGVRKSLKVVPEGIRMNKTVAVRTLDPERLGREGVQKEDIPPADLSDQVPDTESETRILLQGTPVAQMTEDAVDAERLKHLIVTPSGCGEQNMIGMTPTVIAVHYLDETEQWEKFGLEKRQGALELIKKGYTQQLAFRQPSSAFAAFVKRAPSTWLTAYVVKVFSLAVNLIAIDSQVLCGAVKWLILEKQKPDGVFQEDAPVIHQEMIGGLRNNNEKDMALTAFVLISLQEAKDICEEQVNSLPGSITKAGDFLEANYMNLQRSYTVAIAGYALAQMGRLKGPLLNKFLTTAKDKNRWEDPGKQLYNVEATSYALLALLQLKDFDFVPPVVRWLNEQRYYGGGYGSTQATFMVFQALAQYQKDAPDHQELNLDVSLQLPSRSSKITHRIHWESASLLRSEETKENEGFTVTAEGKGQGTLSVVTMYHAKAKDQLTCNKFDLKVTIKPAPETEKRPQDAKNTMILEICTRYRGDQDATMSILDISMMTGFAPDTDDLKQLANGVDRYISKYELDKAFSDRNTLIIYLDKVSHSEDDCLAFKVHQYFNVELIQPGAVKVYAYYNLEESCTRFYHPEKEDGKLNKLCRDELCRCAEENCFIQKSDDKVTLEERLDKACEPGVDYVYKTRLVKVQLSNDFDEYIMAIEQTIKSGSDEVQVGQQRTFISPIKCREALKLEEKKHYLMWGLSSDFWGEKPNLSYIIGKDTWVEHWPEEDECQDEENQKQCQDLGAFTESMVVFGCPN

B1: Hz38G10: humanized 38G10; VH SEQ ID NO:20, VL SEQ ID NO:25; heavy chain SEQ ID NO:27, light chain SEQ ID NO:31 (antibody)
heavy: QVQLVQSGAEVKKPGASVKVSCKASGYTFTDFYMDWVRQAPGQRLEWMGYIYPHNGGTTYNQQFTGRVTITVDKSASTAYMELSSLRSEDTAVYYCARRGGFDFDYWGQGTLVTVSSASTKGPSVFPLAPSSKSTSGGTAALGCLVKDYFPEPVTVSWNSGALTSGVHTFPAVLQSSGLYSLSSVVTVPSSSLGTQTYICNVNHKPSNTKVDKKV[here human IgG1 Fc with E233A L235A (EU numbers) without letters]
light: DIQMTQSPSSLSASVGDRVTITCKASENVDTYVSWYQQKPGKAPKLLIYGASNRYTGVPSRFSGSGSGTDFTFTISSLQPEDIATYHCGQSHSYPLTFGQGTKLEIKRTVAAPSVFIFPPSDEQLKSGTASVVCLLNNFYPREAKVQWKVDNALQSGNSQESVTEQDSKDSTYSLSSTLTLSKADYEKHKVYACEVTHQGLSSPVTKSFNRGEC
Regarding B1, the viscosity in data set [1] (152 mg/mL in 10 mM histidine HCl, 10% α,α trehalose dihydrate, 0.01% polysorbate 20, pH 5.5) was 17.6 mPa-s. In data set [1] (164 mg/mL in 10 mM sodium phosphate, 40 mM sodium chloride, 0.03% polysorbate 20, 5% sucrose, pH 6.2), this molecule came in with a viscosity of 15.2 mPa-s. Also, in data set [2] (setting [6]), the AUC worked out at 3140 µg·days/mL and the Cmax is 541 µg/mL. In data set [2] (setting [7]), this molecule returned an AUC of 33049 µg·days/mL, a Cmax of 5680 µg/mL and a T1/2 of 127 h. Also, in data set [2] (intravitreal), the “distribution to the retina, AUC as % of the vitreous humor” value is given as “approximately 20%” and the “distribution to the retina, Cmax as % of the vitreous humor” value was “approximately 20%”. Further, the “half-life in the vitreous humor” value in data set [2] (intravitreal, 1 mg or 7.5 mg) fell in the range of 96 to 120 h. The “affinity to human C3, times greater than a compstatin derivative or the pegylated version” value with C3 [3] is on record as 50-80 times. Also, the “increase of deamidation at N55 from Day 0 to Day 7” value in data set [4] (pH 8.5) was found to be 18.5%. Besides, in data set [4] (pH 8.5, Day 0), the “deamidation at the asparagine N55, Day 0” value was 29.75%. The “deamidation at the asparagine N55, Day 7” value in data set [4] (pH 8.5, Day 7) is listed as 48.23%. In the data set with C3 [5], the “C3a in the aqueous humor as compared to vehicle” value is “Significantly lower levels of C3a”.

As usually defined, the AUC is concentration integrated over time. One may read the Cmax as the highest concentration seen after dosing.
